In PubChem BioAssay AID720709 (National Center for Advancing Translational Sciences (NCATS), 2013):
In all, about 360,000 compounds went through this assay and about 520 (0.14%) were called active. Inconclusive means that the source gave no clear call. Such entries were picked first, then a sample of the others. The call rests on the fitted dose curve; in most records, active means well fitted inhibition curve with a large enough effect; inconclusive means small, poorly fitted or top-dose-only effect; inactive means no such curve, though single readings can be large or run the other way. A potency beside an inconclusive call is a rough fit, not a confirmed value.

biological target: Rap guanine nucleotide exchange factor 3 (Homo sapiens) (UniProt O95398); assay: qHTS for Antagonist of cAMP-regulated guanine nucleotide exchange factor 3 (EPAC1): primary screen; settings: EPAC1 GEF assay, Rap1b-BODIPY-GDP exchange fluorescence; activity change, negative = inhibition: at 115 µM (top of the series); further: nearly all actives have a fitted effect of over 50% in size;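 on activity change, negative = inhibition: plate controls were vehicle for no effect and positive control for full effect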
Potency means the concentration at half of the fitted maximal effect; tags describe the fitted curve by direction and shape.

Sequence of UniProt O95398 (O95398 whole entry, looked up): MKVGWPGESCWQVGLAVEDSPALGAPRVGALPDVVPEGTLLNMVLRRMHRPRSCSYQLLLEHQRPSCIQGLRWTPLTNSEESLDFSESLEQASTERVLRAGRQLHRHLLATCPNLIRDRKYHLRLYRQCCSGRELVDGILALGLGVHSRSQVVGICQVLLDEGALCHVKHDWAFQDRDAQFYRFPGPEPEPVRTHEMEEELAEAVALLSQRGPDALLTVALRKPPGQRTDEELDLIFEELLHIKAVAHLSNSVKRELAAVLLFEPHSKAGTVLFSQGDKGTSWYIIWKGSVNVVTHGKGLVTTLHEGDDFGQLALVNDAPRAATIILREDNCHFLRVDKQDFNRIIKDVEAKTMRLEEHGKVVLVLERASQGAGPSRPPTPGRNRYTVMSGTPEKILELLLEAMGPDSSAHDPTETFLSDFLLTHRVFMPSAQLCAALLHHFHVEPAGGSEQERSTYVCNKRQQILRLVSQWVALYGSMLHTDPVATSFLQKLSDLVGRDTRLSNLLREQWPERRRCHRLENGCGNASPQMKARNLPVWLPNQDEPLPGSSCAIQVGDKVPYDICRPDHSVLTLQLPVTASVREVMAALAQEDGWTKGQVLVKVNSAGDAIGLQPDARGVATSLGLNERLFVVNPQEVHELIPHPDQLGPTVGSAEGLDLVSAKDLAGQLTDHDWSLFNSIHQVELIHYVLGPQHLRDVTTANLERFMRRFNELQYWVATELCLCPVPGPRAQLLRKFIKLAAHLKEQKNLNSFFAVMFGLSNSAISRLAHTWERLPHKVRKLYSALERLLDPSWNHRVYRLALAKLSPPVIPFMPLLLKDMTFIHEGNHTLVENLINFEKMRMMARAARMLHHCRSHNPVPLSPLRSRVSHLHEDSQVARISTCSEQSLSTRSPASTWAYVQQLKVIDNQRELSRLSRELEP

Potency, inconclusive:
c1ccc2c(c1)Cc1cc(CN3CCOCC3)ccc1-2 10 µM [inhibitor, full curve, poor fit], OC1=C(O)c2nc3cc(F)ccc3nc21 11.2 µM [inhibitor, partial curve], NC(=O)c1nn2c(C(F)(F)F)cc(-c3ccccc3)nc2c1Br 39.8 µM [inhibitor, full curve], Cc1ccc2nc(-c3ccc(NC(=O)CSc4nccc(=O)[nH]4)cc3)sc2c1 70.8 µM [inhibitor, partial curve], CN(Cc1cnn(-c2ccc(F)cc2)c1)C(=O)[C@H]1O[C@@H](n2cnc3c(N)ncnc32)[C@H](O)[C@@H]1O 28.2 µM [inhibitor, single point], CN(C)S(=O)(=O)c1cccc(NC(=O)COC(=O)CCSc2ccc(Cl)cc2)c1 2.51 µM [inhibitor, partial curve], N#CC(=Nc1cccc(F)c1)C1=C(O)c2ccccc2C1=O 70.8 µM [inhibitor, single point], O=S(N1CCc2ccccc21)C12CC3CC(CC(C3)C1)C2 (centres undefined) 112 µM [inhibitor, partial curve, poor fit], CS(=O)(=O)c1ccc(C(=O)OCC(=O)Nc2cccnc2Cl)cc1[N+](=O)[O-] 100 µM [inhibitor, single point], Cc1cccc(Nc2n[nH]c(C)c2[N+](=O)[O-])c1 2.82 µM [inhibitor, full curve, poor fit], O=C1CCC([N+](=O)[O-])C(c2cccc3ccccc23)N1 (centres undefined) 39.8 µM [inhibitor, single point], Cc1oc(-c2cccc(Cl)c2)nc1CN1CCCC(C(=O)NC(C)c2ccc3c(c2)OCCO3)C1 (centres undefined) 89.1 µM [inhibitor, single point], O=C(Nc1ncccn1)c1cccc(F)c1 25.1 µM [inhibitor, full curve], COC(=O)CCCC1=CC2=CC(=O)C(C)(OC(=O)C3CCCC3)C(=O)C2=CO1 (centres undefined) 56.2 µM [inhibitor, partial curve], N#Cc1ccc(Oc2nc(C(N)=O)cc(-c3ccccc3)n2)cc1 35.5 µM [inhibitor, full curve, poor fit], O=C(NC1CCCCC1)C(c1ccc(C(F)(F)F)cc1)n1c(=O)c(-c2ccco2)nc2ccccc21 (centres undefined) 70.8 µM [inhibitor, partial curve], COC(=O)[C@H]1C[C@@]2(O)CN(S(=O)(=O)c3ccc(C)cc3)C[C@@]2(OC(=O)Nc2cccs2)C[C@H]1C(=O)OC 89.1 µM [inhibitor, single point], CCC(=O)Nc1ccc(NC(=O)c2cccc3c(Br)cccc23)cc1 14.1 µM [inhibitor, partial curve], COc1cccc(C2/C(=C(\O)c3ccc4c(c3)OCCO4)C(=O)C(=O)N2c2nnc(C)s2)c1 (centres undefined) 100 µM [inhibitor, single point], O=C(c1cc(COc2cccc(C(F)(F)F)c2)on1)N1CCSCC1 44.7 µM [inhibitor, partial curve], CC(=O)Nc1cc(C(=O)N2CCc3ccccc3C2)ccc1Sc1ccc(Cl)cc1 100 µM [inhibitor, single point], CCOC(=O)C1CCCN(C(=O)c2cccc(S(=O)(=O)N3CCOCC3)c2)C1 (centres undefined) 2.82 µM [inhibitor, full curve, poor fit], COc1ccccc1CNC(=O)N/C=C/c1ccc(Cl)cc1 3.16 µM [inhibitor, full curve, poor fit], CC(=O)Nc1ccc(-n2cc(-c3ccccc3)[nH]c2=S)cc1 50.1 µM [inhibitor, partial curve, poor fit], Nc1ccc2ccc(O)cc2c1 89.1 µM [inhibitor, partial curve, poor fit], Cc1c(Cl)cnc(NC(=O)COC(=O)c2ccc([N+](=O)[O-])s2)c1Cl 17.8 µM [inhibitor, full curve], O=C(CN1CCN(c2ccccc2O)CC1)Nc1ccc(S(=O)(=O)N2CCCCCC2)cc1 100 µM [inhibitor, single point], NC1=C(Cl)C(=O)c2ccc(S(N)(=O)=O)cc2C1=O 44.7 µM [inhibitor, partial curve], C=CCC1=C/C(=C\c2c(N)n3nc(CC(=O)N4CCCC4)sc3nc2=O)C=C(OC)C1=O 56.2 µM [inhibitor, partial curve, poor fit], COc1ccc(Cc2c(-c3ccco3)nc3ccc(Br)cn23)c(C)c1 56.2 µM [inhibitor, partial curve], CCOC(=O)Cc1csc(NC(=O)Cn2cnc3c2c(=O)n(C)c(=O)n3C)n1 17.8 µM [inhibitor, partial curve], COC(=O)c1sc(N)c(C(=O)OC)c1COC(=O)CNS(=O)(=O)c1cccc(C#N)c1 50.1 µM [inhibitor, partial curve, poor fit], CC(=O)Nc1nnc(CCS(=O)(=O)c2ccc(C)c(C)c2)s1 100 µM [inhibitor, single point], Cc1ccc(S(=O)(=O)Cn2nnnc2C(c2ccccc2)N2CCN(c3ccccc3)CC2)cc1 (centres undefined) 100 µM [inhibitor, single point], Cc1cc(CN(C)C(=O)c2ccc3nc(Cc4ccccc4F)oc3c2)on1 39.8 µM [inhibitor, partial curve], CC1CCc2sc(C(=O)Nc3ccc(C(N)=O)cc3)cc2C1 (centres undefined) 100 µM [inhibitor, single point], CC(=O)Nc1c(Cl)cc(Cl)c2c1Cc1cc(Cl)ccc1-2 79.4 µM [inhibitor, partial curve], O=C(NC1CCCCCC1)c1cccnc1Sc1ccc(Cl)cc1 10 µM [inhibitor, partial curve], O=C1c2ccccc2C(O)N1Cc1ccccc1Cl (centres undefined) 39.8 µM [inhibitor, single point], CC(=O)Nc1cc(OC(C)=O)c2nonc2c1OC(C)=O 35.5 µM [inhibitor, partial curve, poor fit], Cc1nc2cc(NC(=O)CCS(=O)(=O)c3ccccc3)ccc2s1 39.8 µM [inhibitor, full curve, poor fit], CCOC(=O)c1sc2nc(CN3CCCCC3)nc(Cl)c2c1C 89.1 µM [inhibitor, single point], CSc1nsc(SCC(=O)Nc2ccc(C(N)=O)cc2)n1 44.7 µM [inhibitor, partial curve, poor fit]

Potency, active:
COc1ccc(C=NNc2ccc([N+](=O)[O-])cc2S(=O)(=O)Nc2ccccc2C(=O)O)cc1OC 50.1 µM

Activity change, negative = inhibition, inconclusive:
Cc1cc(C)cc(OCc2ccc(C(=O)N3N=C(C(F)F)CC3(O)C(F)F)o2)c1 (centres undefined) -31.6% [inhibitor]

Activity change, negative = inhibition, inactive:
Cc1cc(NC(=O)c2cccc(Br)c2)n[nH]1 1.06%, CC(=O)c1cccc(NC(=O)c2ccc3c(c2)OCO3)c1 4.22%, O=C(/C=C/c1cccc([N+](=O)[O-])c1)OCC(=O)N1CCCCC1 -14.7%, O=C(O)CCCCCNC(=O)c1cccc(Br)c1 7.57%, COc1ccc(C(NC(=O)c2cc(OC)ccc2OC)c2ccccc2)cc1 (centres undefined) -23.7%, CN1C[C@@H]2C(c3ccccc3)C3(c4cccnc4)CC2(C3)[C@H]1c1ccccc1 (some centres undefined) -10.1%, CCOc1cc(/C=C(\C#N)C(=O)Nc2cccc(C(=O)O)c2)ccc1OCc1ccc(Br)cc1 21.5%, O=C(/C=C/c1ccco1)Nc1nc(-c2ccccc2)cs1 -4.37%, CC(=O)c1ccc(N2CCN(S(=O)(=O)c3cc(-c4cc(C)no4)ccc3C(C)C)CC2)cc1 10.2%, CC(C)C(C)NC(=O)COn1nnc2ccc(S(=O)(=O)N3CCOCC3)cc21 (centres undefined) 1.06%, O=C(Cc1ccsc1)NCc1ccccc1F -12.8%, O=C(CCl)Nc1ccc(S(=O)(=O)NC2=NCCCCC2)cc1 4.3%, CC1CCN(C(=O)c2ccc([N+](=O)[O-])o2)CC1 -14.3%, COc1ccc(S(=O)(=O)N2CCC(C(=O)NCc3ccncc3)CC2)cc1OC -10.3%, CCCCNC(=O)c1nc(C2CCN(S(=O)(=O)c3ccc(C(F)(F)F)cc3)CC2)oc1-c1ccccc1 -17.9%, CCCN(c1ccc(OCC)cc1)c1ncnc2nc[nH]c12 2.34%, O=C(NC(=S)Nc1ccc(Cl)c(C(=O)O)c1)c1cccc(COc2ccccc2)c1 -20.8%, Cc1cccc(-n2c(=S)[nH]c3sc4c(c3c2=O)CCc2ccccc2-4)c1 -10.1%, CC1CCCCC1NC(=O)CSc1ncnc2sccc12 (centres undefined) 9.87%, COC(=O)[C@@]12C[C@@H](CC(=O)NCCc3ccccc3OC)C(=O)N(Cc3ccccc3)C1=CCC(C)(C)C2 -19.3%, O=C1Nc2ccccc2C1=Nc1ccc(Br)cc1 -24.6%, Cc1ccccc1NC(=O)CSc1ccc(-c2ccco2)nn1 0.281%, COC(=O)C1=C(C)N(Cc2ccccc2)C(=O)N[C@H]1c1ccccc1 -14.2%, O=C(c1cc(-c2ccc(Cl)cc2)n(-c2ccc(Cl)cc2)n1)N1CCOCC1 -1.24%
